# Results reported in the supplement of paper PMC3334620.
# Over roughly 33,000 sequences, “E-score (-0.5 to 0.5)” has its median near -0.035; the highest 2% begin near 0.35. Some of the results follow.
# Molecular target: T1, Pdr3 (UniProt P33200)
# T1 sequence: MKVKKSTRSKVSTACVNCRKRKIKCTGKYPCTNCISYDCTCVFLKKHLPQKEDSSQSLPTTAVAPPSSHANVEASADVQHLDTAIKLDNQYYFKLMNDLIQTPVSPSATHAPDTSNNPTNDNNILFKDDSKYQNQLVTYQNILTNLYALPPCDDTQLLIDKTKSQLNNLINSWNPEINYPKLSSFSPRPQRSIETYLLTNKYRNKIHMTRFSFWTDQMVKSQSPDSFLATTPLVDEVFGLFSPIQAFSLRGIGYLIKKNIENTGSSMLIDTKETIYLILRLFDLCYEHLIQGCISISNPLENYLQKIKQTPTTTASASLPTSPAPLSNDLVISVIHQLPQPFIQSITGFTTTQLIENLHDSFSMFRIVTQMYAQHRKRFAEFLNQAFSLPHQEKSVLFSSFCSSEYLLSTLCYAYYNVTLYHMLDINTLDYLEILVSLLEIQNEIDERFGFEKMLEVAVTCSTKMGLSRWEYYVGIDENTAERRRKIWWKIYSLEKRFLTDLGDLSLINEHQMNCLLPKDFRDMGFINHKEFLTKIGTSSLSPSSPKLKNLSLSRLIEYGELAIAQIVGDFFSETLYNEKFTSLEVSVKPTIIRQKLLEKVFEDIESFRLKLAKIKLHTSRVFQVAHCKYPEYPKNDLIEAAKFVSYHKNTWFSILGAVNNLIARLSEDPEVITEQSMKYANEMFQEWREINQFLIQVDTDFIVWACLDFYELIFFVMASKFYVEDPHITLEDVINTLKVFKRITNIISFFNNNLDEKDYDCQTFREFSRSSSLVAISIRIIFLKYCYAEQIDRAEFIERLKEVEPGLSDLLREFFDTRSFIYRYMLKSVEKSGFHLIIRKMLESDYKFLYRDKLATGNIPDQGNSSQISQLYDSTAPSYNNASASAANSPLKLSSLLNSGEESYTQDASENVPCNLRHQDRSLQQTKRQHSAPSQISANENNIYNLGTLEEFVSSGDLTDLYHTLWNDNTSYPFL
# Assay: PBM E-score (8-mer binding enrichment) (E-score (-0.5 to 0.5)); higher = stronger / more preferred TF binding; most listed sequences are background and not binding sites
# Details: protein concentration: 200 nM; construct: GST-full length
# How it was run: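 Full-length yeast transcription factors or their DNA-binding domains, GST-tagged and expressed with PURExpress, were applied at about 100-200 nM to universal all-10-mer Agilent arrays. These arrays had been made double-stranded by primer extension on fresh or once-stripped slides. Detection used fluorescent anti-GST, normalisation used masliner, and E-scores for ungapped eight-base words pooled with reverse complements came from the Universal PBM Analysis Suite.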
row,Sequence,PBM E-score
1,AAGCTGTC,-0.208
2,GAGTCTGC,-0.238
3,CATCGTTA,-0.343
4,GACCTCAC,-0.0532
5,TCCCAGCA,0.107
6,CATTGTGG,0.0386
7,ATTCATTA,0.0307
8,CGGTATAA,0.0918
9,AACAGATT,-0.0762
10,AAGCCGTG,0.0354
11,CGGGTTTC,0.298
12,AGGCCTAC,-0.0777
13,ATATCCTG,-0.142
14,CGGTTAAC,0.107
15,GGCTTACC,0.0205
16,AAAACACT,-0.0926
17,CTTCACTC,-0.00119
18,CGTTAAGC,-0.0721
19,AAAACGCC,0.0384
20,GAGGGCCA,-0.046
21,CTGTTGCA,0.0903
22,AGACTGGC,-0.266

row,Sequence,PBM E-score
1,ACCTCTTC,-0.0577
2,GCTATCTA,-0.146
3,AACGGGGT,0.155
4,GTAAAGAC,-0.08
5,CACTGAGC,-0.0812
6,GTGAGAAC,-0.178
7,AGGGATCA,-0.113
8,ATTAATTC,0.16
9,AGCAACCC,-0.0264
10,CCCTCAAA,-0.0915
11,TAGCCGCA,-0.0883
12,GTCATGGA,-0.146
13,CGGAAACC,0.425
14,ACAAATGC,-0.0621
15,AGAAAACA,-0.0512
16,AAAGGACA,0.0426
17,CTCCAATA,0.0386
18,CAATTAGG,-0.0564
19,ACAAAGGA,0.0224
20,ATCGGCCG,0.306
21,CACCTATA,-0.193
22,AGACGTCG,-0.0609

row,Sequence,PBM E-score
1,GACGGTAA,0.157
2,GCCCTGAC,-0.263
3,TACACTGA,-0.0677
4,GAAGCGAA,0.0162
5,ATGATTAA,-0.0464
6,TCACACGA,-0.144
7,ACAGACTG,-0.171
8,ACATTCGT,-0.168
9,AGTATCGG,0.141
10,ACCTGGCA,-0.0336
11,ATCTTATG,-0.111
12,ACTGGGTA,-0.14
13,AAATTTCA,-0.409
14,GTAGACCA,-0.151
15,AATATCGT,0.0315
16,TGCTAACA,0.0257
17,CGTTTCAA,-0.0386
18,ATTGGATA,-0.023
19,GATGGCGA,0.0994
20,AGAATACA,0.13
21,AGGGCAGG,-0.0955
22,CGGGAGGA,0.255

row,Sequence,PBM E-score
1,CAGGACAG,-0.0411
2,ATCAAATC,0.0855
3,AATTGAGA,0.109
4,CCGATTAC,0.176
5,GAGGCCAA,0.0103
6,GGGCACCC,-0.0509
7,ACCAGTAT,0.0888
8,TACCACTA,-0.0712
9,AAGAAACA,0.0916
10,CATAAGTA,-0.261
11,CGCCTGAG,0.0467
12,GAAATAAA,0.0582
13,ACACACCT,0.104
14,CGACCGCG,0.331
15,AATGGTAA,0.0417
16,CAAACTGA,0.0275
17,CCACCCCA,-0.0682
18,CGGACGCA,0.21
19,ATATTACG,0.116
20,CGCCTCGC,0.101
